About 860 (0.43%) of roughly 200,000 compounds were called active. Inconclusive means that the source gave no clear call. Such entries were picked first, then a sample of the others. Calls come from the whole dose curve; as a rule, active = well fitted inhibition curve with a large enough effect; inconclusive = small, poorly fitted or top-dose-only effect; inactive = flat fitted curve, though single readings scatter. Where the call is inconclusive, the potency comes from a doubtful curve fit.
The compounds below were run against Cruzipain (Trypanosoma cruzi) (UniProt P25779) (assay: qHTS Assay for Promiscuous and Specific Inhibitors of Cruzain (with detergent)). Conditions: purified cruzain, Z-FR-AMC fluorescence, 0.01% Triton.
UniProt P25779, sequence (P25779 whole entry, looked up): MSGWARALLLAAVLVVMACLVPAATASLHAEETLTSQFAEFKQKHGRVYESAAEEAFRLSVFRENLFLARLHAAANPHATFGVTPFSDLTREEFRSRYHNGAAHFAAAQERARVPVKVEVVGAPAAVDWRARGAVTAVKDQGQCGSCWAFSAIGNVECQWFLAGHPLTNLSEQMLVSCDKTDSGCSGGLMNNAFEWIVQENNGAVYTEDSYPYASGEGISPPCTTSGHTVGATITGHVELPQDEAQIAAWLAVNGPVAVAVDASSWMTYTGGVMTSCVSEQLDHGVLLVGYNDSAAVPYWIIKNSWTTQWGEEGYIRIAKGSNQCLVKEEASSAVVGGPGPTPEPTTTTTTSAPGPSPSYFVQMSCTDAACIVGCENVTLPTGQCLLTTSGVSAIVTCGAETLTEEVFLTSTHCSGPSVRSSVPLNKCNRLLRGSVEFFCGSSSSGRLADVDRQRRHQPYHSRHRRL
Method in brief: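 Detergent-containing run (0.01% Triton X-100) in acetate buffer pH 5.5 with 5 mM DTT: enzyme at 1.5 nM final, 15 min compound preincubation at room temperature, then 2 uM Z-FR-AMC substrate. Activity taken as 60 s fluorescence increase at 360/450 nm.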
With Cc1ccc(C(=O)Cn2ncsc2=N)cc1 the Potency was inconclusive: 31.6 µM [inhibitor, single point]. O=C(O)/C=C/c1nc(-c2ccccc2)n2ccccc12 was tested, and the Potency was inconclusive: 25.1 µM [inhibitor, single point]. In the case of COc1ccc(OC)c(C(=O)COC(=O)CNC(=O)C2CCCCC2)c1, the Potency was active: 4.47 µM. COc1ccc2cc3cc(C(=O)NCCN4CCN(Cc5ccccc5)CC4)oc3nc2c1 was tested, and the Potency was inconclusive: 28.2 µM [inhibitor, single point]. N#CCCCl was tested, and the Potency was inconclusive: 39.8 µM [inhibitor, single point]. Fc1ccc(COc2ccccc2C(=S)N2CCCC2)cc1 was tested, and the Potency was inconclusive: 3.55 µM [inhibitor, full curve, poor fit]. For Cc1ccc(C(=O)NCC(=O)OCC(=O)Nc2ncc(C(F)(F)F)cc2Cl)cc1, the Potency was active: 7.08 µM. COc1cccc2[nH]c3c(Cl)ncnc3c12 was tested, and the Potency was inconclusive: 25.1 µM [inhibitor, single point]. In the case of N#Cc1c(-c2ccco2)cc(-c2ccc(F)cc2)nc1N, the Potency was inconclusive: 31.6 µM [inhibitor, single point]. In the case of CC(C)C[C@H](N)c1nnc(S(=O)(=O)Cc2ccc(F)cc2)o1, the Potency was active: 12.6 µM. In the case of N#Cc1c(N2CCOCC2)nc(-c2ccco2)c2c1CCCC2, the Potency was active: 12.6 µM. O=C1CSC(c2nn(-c3ccccc3)cc2-c2cc3ccccc3oc2=O)N1Cc1ccco1 (stereo not given) was tested, and the Potency was active: 25.1 µM. CCc1nnc(NS(=O)(=O)c2ccc(NC(=S)NC(=O)c3ccc(Br)cc3)cc2)s1 was tested, and the Potency was inconclusive: 25.1 µM [inhibitor, single point]. With O=C(CCN1CCc2ccccc2CC1)c1ccc2c(c1)OCCO2 the Potency was inconclusive: 17.8 µM [inhibitor, partial curve]. In the case of O=C(CSc1ccc(Cl)cc1)Nc1cccc(-c2nc3ccccc3[nH]2)c1, the Potency was inconclusive: 35.5 µM [inhibitor, single point]. COc1ccccc1C(=O)NC(CCSC)C(=O)OCC(=O)NC(=O)NCc1ccco1 (stereo not given) was tested, and the Potency was inconclusive: 25.1 µM [inhibitor, single point]. Cc1ccc(-n2c(SCC(=O)N3CC(=O)Nc4ccccc43)nc3ccccc3c2=O)cc1 was tested, and the Potency was inconclusive: 15.8 µM [inhibitor, partial curve]. Cc1nccc2c1[nH]c1ccccc12 was tested, and the Potency was inconclusive: 39.8 µM [inhibitor, single point]. With Fc1ccc(-c2csc(-c3nc(-c4ccc(Br)s4)cs3)n2)cc1 the max response, negative = inhibition was inactive: -0.421%. With O=C(NCC1(c2ccccc2)CCCC1)C(=O)Nc1cccc(C(F)(F)F)c1 the max response, negative = inhibition was inactive: 1.88%. In the case of C=CCn1c(SCc2cc(C(C)=O)ccc2OCC)nc2ccccc2c1=O, the Potency was active: 14.1 µM. With CC(C)S(=O)(=O)C1=NSC2=NC(=O)/C(=C\c3ccc(-c4ccccc4)o3)C(=N)N21 the Potency was inconclusive: 28.2 µM [inhibitor, single point]. In the case of CN1CCN(C(N)=NC(=O)c2ccccc2)CC1, the Potency was inconclusive: 35.5 µM [inhibitor, single point]. In the case of O=C(N/N=C/C=C/c1ccc([N+](=O)[O-])cc1)c1cccs1, the Potency was inconclusive: 17.8 µM [inhibitor, partial curve]. With NC(=S)N=Nc1c(O)n(Cc2ccccc2)c2ccccc12 the Potency was inconclusive: 1.41 µM [inhibitor, full curve]. In the case of Cc1nn(-c2nnc(NCc3ccccc3)nn2)c(C)c1Br, the Potency was active: 12.6 µM. In the case of CC1(C)Cc2c(sc3ncnc(NNC(=S)NCc4ccccc4)c23)CO1, the max response, negative = inhibition was inactive: -5.53%. For O=C(Nc1ccc(-c2nc3ccccc3[nH]2)cc1)c1ccco1, the Potency was inconclusive: 39.8 µM [inhibitor, single point]. O=C(NCCN1CCOCC1)c1c(F)c(F)c(F)c(F)c1F was tested, and the Potency was inconclusive: 31.6 µM [inhibitor, single point]. For CC(=O)OC1(C(F)(F)F)Oc2ccccc2NC1=O (stereo not given), the Potency was active: 0.891 µM. With NC(=S)N/N=C/c1ccc(-c2ccc(Cl)c(Cl)c2)o1 the Potency was active: 0.631 µM. For O=S1(=O)c2ccccc2N=NN1Cc1ccc(Cl)cc1, the Potency was inconclusive: 31.6 µM [inhibitor, single point]. O=C(COC(=O)CNC(=O)c1ccccc1F)Nc1ccc2c(c1)OCCO2 was tested, and the Potency was active: 8.91 µM. COc1ccc(NC(=O)CSc2nc(O)cc(=O)n2-c2ccccc2OC)cc1 was tested, and the Potency was inconclusive: 28.2 µM [inhibitor, single point]. COc1ccc(CCNc2nc(-c3sc(N)nc3C)cs2)cc1OC was tested, and the Potency was active: 14.1 µM. For CCOc1ccc(N2CSC3=C(C#N)C(c4ccco4)CC(=O)N3C2)cc1 (stereo not given), the Potency was inconclusive: 25.1 µM [inhibitor, single point]. In the case of Cc1nc(N)sc1-c1csc(N(C)c2ccc(O)cc2)n1, the Potency was active: 12.6 µM. With CCc1nnc(NS(=O)(=O)c2ccc(NC(=S)NC(=O)/C=C/c3ccc(F)cc3)cc2)s1 the Potency was inconclusive: 31.6 µM [inhibitor, single point]. O=C(COC(=O)CNC(=O)c1ccccc1F)NCCC1=CCCCC1 was tested, and the Potency was active: 14.1 µM. O=C(NCc1ccco1)c1cc2ccc(O)cc2oc1=O was tested, and the Potency was inconclusive: 31.6 µM [inhibitor, single point]. For COc1cc2c(cc1OC)C(c1ccc(-c3ccc(Cl)c(Cl)c3)o1)=NCC2, the Potency was inconclusive: 28.2 µM [inhibitor, single point]. In the case of Cc1ccc(S(=O)(=O)NCC(=O)OC(C)C(=O)Nc2ncc(Cl)cc2Cl)cc1 (stereo not given), the Potency was inconclusive: 28.2 µM [inhibitor, single point]. With COc1cc2cc3c(N)c(C(=O)NCc4ccco4)sc3nc2cc1OC the Potency was inconclusive: 25.1 µM [inhibitor, partial curve]. In the case of CN(C)c1oc(-c2ccc(OCc3ccc(Cl)cc3)cc2)nc1C#N, the Potency was inconclusive: 31.6 µM [inhibitor, single point]. In the case of CCc1ccccc1NC(=O)c1nnn(CC(=O)Nc2c(C)cc(C)cc2C)c1N, the max response, negative = inhibition was inactive: 0.325%. With Cc1c(Cl)cccc1-c1ccc(C(=O)Nc2ccc3oc(-c4cccnc4)nc3c2)o1 the Potency was inconclusive: 17.8 µM [inhibitor, partial curve]. With CCOc1ccc2nc(N/C(N)=N/C(=S)Nc3cccc(C)c3)nc(C)c2c1 the max response, negative = inhibition was inactive: -3.48%. Cc1cc(C)c(S(=O)(=O)ON2C(=O)c3ccccc3C2=O)cc1C was tested, and the Potency was inconclusive: 25.1 µM [inhibitor, partial curve]. In the case of CC1=C(C(=O)OCc2ccccc2)C(c2ccc(C3CCCCC3)cc2)NC(=O)N1CCCCCC(=O)O (stereo not given), the Potency was inconclusive: 28.2 µM [inhibitor, single point]. Nc1ccc2nc(-c3ccc(Cl)cc3)[nH]c2c1 was tested, and the Potency was inconclusive: 25.1 µM [inhibitor, single point]. In the case of O=c1oc2c(CN3CCCCC3)c(O)ccc2c2c1CCCCC2, the Potency was inconclusive: 31.6 µM [inhibitor, single point]. With Cc1c(C(=O)NC2CCCCC2)sc2nc3ccc(N)cc3n12 the max response, negative = inhibition was inactive: -6.08%. With Cc1cc(C)n2nc(CC(=O)NCc3ccccc3Cl)nc2n1 the Potency was active: 15.8 µM. O=c1oc2c(CN3CCCCC3)c(O)ccc2c2c1CCCC2 was tested, and the Potency was inconclusive: 35.5 µM [inhibitor, single point]. CCN1CCCC1CNc1ncnc2c1[nH]c1ccc(F)cc12 (stereo not given) was tested, and the Potency was active: 25.1 µM. CCc1cc(=O)oc2c(CN3CCN(C)CC3)c(O)c(Cl)cc12 was tested, and the Potency was inconclusive: 35.5 µM [inhibitor, single point]. In the case of Nc1c(C(=O)NC2CC2)sc2nc3c(c(-c4ccco4)c12)CC/C3=C/c1ccco1, the Potency was inconclusive: 28.2 µM [inhibitor, single point]. Cn1c(=O)c(C(=O)COC(=O)c2cc(-c3ccco3)nc3ccccc23)c(N)n(CC2CC2)c1=O was tested, and the Potency was inconclusive: 31.6 µM [inhibitor, single point]. With COC(=O)C(C)Oc1ccc2c3c(c(=O)oc2c1)CCCCC3 (stereo not given) the Potency was inconclusive: 17.8 µM [inhibitor, single point]. COc1ccc(S(=O)(=O)N2CCC(n3c(C(F)(F)F)nc4cccnc43)CC2)cc1OC was tested, and the max response, negative = inhibition was inactive: -2.38%. In the case of CC1=NN(C(N)=S)C(=O)C1N=Nc1ccccc1C (stereo not given), the Potency was inconclusive: 14.1 µM [inhibitor, partial curve]. In the case of CCCc1cc(-c2n[nH]c(=S)n2CC(C)C)cs1, the Potency was inconclusive: 28.2 µM [inhibitor, single point]. With Cc1ccccc1-c1ccc2ncnc(NCc3cccs3)c2c1 the Potency was inconclusive: 25.1 µM [inhibitor, single point]. COc1ccccc1C(=O)NCCc1nc2ccccc2n1C was tested, and the Potency was inconclusive: 17.8 µM [inhibitor, single point]. In the case of Cc1nc2ccc(S(=O)(=O)NCC(=O)NCCN3CCCCCC3)cc2s1, the Potency was inconclusive: 31.6 µM [inhibitor, single point]. For CN(Cc1ccco1)c1ccnc(-c2cccc(NS(C)(=O)=O)c2)n1, the Potency was inconclusive: 15.8 µM [inhibitor, partial curve]. Cn1ncnc2c(=O)n(C)c(=O)nc1-2 was tested, and the Potency was active: 1.26 µM. With Cc1ccc(S(=O)(=O)c2c(N)n(NC(=O)C3CC3)c3nc4ccccc4nc23)cc1 the Potency was inconclusive: 25.1 µM [inhibitor, single point]. N#Cc1nc(-c2cccs2)oc1NCCc1ccccc1 was tested, and the Potency was inconclusive: 10 µM [inhibitor, partial curve]. With Cc1cccc(CN2CCC(CNC(=O)c3c(C)oc4ncnc(N5CCCCC5)c34)CC2)c1 the max response, negative = inhibition was inactive: -0.0156%.
Note: nearly all actives have a fitted effect of over 40% in size.
Potency is the fitted concentration of half-maximal effect; tags give direction and shape of the fitted curve.
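Throughout, for max response, negative = inhibition: plate controls were neutral wells for no effect and buffer without enzyme for full effect.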
